Experimental data published in the supplement of paper PMC12645437, “Orthogonal IMiD-Degron Pairs Induce Selective Protein Degradation in Cells” (ACS Chemical Biology, 2025).
The other results are listed elsewhere or left out.

These sequences were tested against no compound (DMSO) (assay: log2 fold change of degron read counts, EGFP-low vs EGFP+ sorted cells; higher = lower degron-EGFP level without compound (poor expression or instability)). Conditions: compound: DMSO control; 18 h.
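Note: jurkat cells carrying a lentiviral library of mutant zinc finger degrons fused to EGFP plus mCherry, mCherry+ cells FACS sorted, degron abundance counted by next-generation sequencing.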

Row | Sequence | log2 fold change of degron read counts
1 | FTCPQCGARFTQKGNLLRHIKL | -0.24
2 | FFCEICGRSFTQKGNLLRHIKL | -0.887
3 | FYCDICGALFTQKGNLLRHIKL | 0.0335
4 | LDCPICGFICTQKGNLLRHIKL | 1.49
5 | FQCSVCGHLFTQKGNLLRHIKL | -0.281
6 | FICEICGAGFTQKGNLLRHIKL | -2.33
7 | FECPICGRNFTQKGNLLRHIKL | -0.625
8 | FICNQCGHTFTQKGNLLRHIKL | -0.705
9 | FNCPVCGALFTQKGNLLRHIKL | -0.0437
10 | FHCPICGHLFTQKGNLLRHIKL | -0.421
11 | FSCNVCGAAFTQKGNLLRHIKL | -1.13
12 | FLCEICGHMFTQKGNLLRHIKL | -1.18
13 | FECPICGHDFTQKGNLLRHIKL | -0.804
14 | FFCPICGHMFTQKGNLLRHIKL | 0.686
15 | FQCNQCGRFFTQKGNLLRHIKL | 0.297
16 | FSCNQCGHFFTQKGNLLRHIKL | 0.613
17 | LLCPICGFHCTQKGNLLRHIKL | 1.16
18 | FKCPQCGAIFTQKGNLLRHIKL | -1.37
19 | FCCDQCGAKFTQKGNLLRHIKL | -1.93
20 | FGCDICGAHFTQKGNLLRHIKL | -0.705
21 | FECEICGAYFTQKGNLLRHIKL | -0.802
22 | FSCNQCGHVFTQKGNLLRHIKL | 0.128
23 | LLCEICGFGCTQKGNLLRHIKL | 0.763
24 | FTCPICGAVFTQKGNLLRHIKL | -0.17
25 | FSCSVCGHMFTQKGNLLRHIKL | -0.0161

Row | Sequence | log2 fold change of degron read counts
26 | FSCNQCGRRFTQKGNLLRHIKL | 0.0733
27 | FYCNQCGRHFTQKGNLLRHIKL | 0.591
28 | FHCPICGAIFTQKGNLLRHIKL | 0.139
29 | FNCPICGHSFTQKGNLLRHIKL | 0.043
30 | FHCNQCGAQFTQKGNLLRHIKL | -0.251
31 | FFCPICGADFTQKGNLLRHIKL | 0.0896
32 | FQCSVCGHCFTQKGNLLRHIKL | -1.14
33 | FWCPICGAWFTQKGNLLRHIKL | 1.88
34 | FLCEICGRYFTQKGNLLRHIKL | -0.104
35 | FQCDVCGALFTQKGNLLRHIKL | -0.877
36 | FGCDVCGAEFTQKGNLLRHIKL | -2.27
37 | LFCPICGFICTQKGNLLRHIKL | 2.16
38 | FTCEQCGAVFTQKGNLLRHIKL | -1.96
39 | LSCPICGFCCTQKGNLLRHIKL | 0.764
40 | FSCDQCGAKFTQKGNLLRHIKL | -2.3
41 | FQCNICGAYFTQKGNLLRHIKL | -0.569
42 | FKCNQCGRTFTQKGNLLRHIKL | -1.31
43 | FKCDVCGAKFTQKGNLLRHIKL | -2.51
44 | FLCNQCGHEFTQKGNLLRHIKL | -0.174
45 | FICDVCGAKFTQKGNLLRHIKL | -1.34
46 | LYCPICGFLCTQKGNLLRHIKL | 1.53
47 | FQCEQCGAQFTQKGNLLRHIKL | -1.68
48 | FICPICGRWFTQKGNLLRHIKL | 0.807
49 | FFCPVCGALFTQKGNLLRHIKL | 0.33
50 | FMCPICGAWFTQKGNLLRHIKL | 1.41
